In PubChem BioAssay AID757 (NMMLSC, 2007):
Among all 190,000 compounds or so, about 520 (0.27%) were called active. The inconclusive results got no clear call from the source; some entries with a clear call stand among them for comparison.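 Rule for the calls: active = GTP binding activity at least 20 points away from the 100% control level, either lower or higher; inconclusive = compound flagged as likely green fluorescent, judged across all proteins; inactive = the rest.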

Each molecule was assayed against Ras-related C3 botulinum toxin substrate 1 (Homo sapiens) (UniProt P63000) (assay: wildtype Rac1 GTP binding modulators, primary screen, biochemical, GST-Rac1 beads, flow cytometry, multiplex (AID 757)). Details: fluorescent GTP binding, at 10 µM, actives lie on both sides, 0 = cold GTP competed, 100 = untreated.

Row | Compound | GTP binding activity (% of control)
1 | Cc1ccc(-c2cc(-c3nnc(SCC(=O)NCC(C)C)n3N)c3ccccc3n2)cc1 | inconclusive: 105%
2 | O=[N+]([O-])c1cc(S(=O)(=O)N2CCCC2)ccc1N/N=C1/CCCc2ccccc21 | inconclusive: 106%
3 | Cc1nc2c(ccc3nc(NC(=O)c4ccc(S(=O)(=O)N(C)C)cc4)sc32)s1 | inconclusive: 85%
4 | NC(CSCc1ccccc1Cl)C(=O)O (stereo not drawn) | inconclusive: 92%
5 | COc1cc(OC)c(OC)cc1/C=N/NC(=S)NCC1CCCO1 (stereo not drawn) | inactive: 98%
6 | Cc1cc(C)c2sc(N(CCN(C)C)C(=O)c3cc(Cl)sc3Cl)nc2c1 | inconclusive: 138%
7 | Cc1ccc(C(=O)/C=C/c2ccc(-c3ccccc3[N+](=O)[O-])o2)cc1 | inconclusive: 94%
8 | O=S(=O)(c1cccs1)N1CCC(CO)(Cc2ccc(Cl)cc2)CC1 | inactive: 97%
9 | Fc1cccc(NC(=S)NCCCN2CCOCC2)c1 | inconclusive: 106%
10 | C=CCn1c(N)c(C(=O)Nc2ccc(C)c(C)c2)c2nc3ccccc3nc21 | inconclusive: 87%
11 | CC(C)=C1SC(N2CCN(c3cccc(C(F)(F)F)c3)CC2)=NC1=O | inconclusive: 93%
12 | COc1ccc(-c2cc(-c3ccc(C)cc3)nc(SCc3nnc(-c4ccccc4)o3)c2C#N)cc1OC | inactive: 108%
13 | O=c1[nH]c(SCc2c(Cl)cccc2Cl)nc2ccccc12 | inactive: 99%
14 | COc1ccc(N2CCN(C(=O)CSc3nnc4c5cc(C)ccc5n(C)c4n3)CC2)cc1 | inconclusive: 84%
15 | COc1cc2[nH]c3c(N4CCN(c5ccc(Cl)cc5)CC4)ncnc3c2cc1OC | inconclusive: 106%
16 | Fc1cccc(CN2CCN(c3nc4nonc4nc3NC3CC3)CC2)c1 | inconclusive: 91%
17 | Cc1ccc(SCC(=O)Nc2ccc(F)cc2[N+](=O)[O-])cc1C | inconclusive: 98%
18 | Cn1c(SCc2ccc(F)cc2)nnc1-c1cccs1 | inconclusive: 104%
19 | COc1cccc(N2CCN(C(=O)c3cccnc3)CC2)c1 | inactive: 95%
20 | COc1cc(NC(=S)NCC2CCCO2)c(OC)cc1Cl (stereo not drawn) | inconclusive: 97%
21 | Cc1cc([N+](=O)[O-])nn1CCC(=O)Nc1nccs1 | inactive: 100%
22 | CC(C)CN(C)C(=O)CC1C(=O)NCCN1C (stereo not drawn) | inconclusive: 99%
23 | CC1CCCC(C)N1CCCNC(=O)Cn1cc2c(n1)CCCC2 (stereo not drawn) | inconclusive: 106%
24 | COc1ccc(C(=O)NCc2nnc(SCC(=O)Nc3ccccc3OC)n2C)cc1 | inconclusive: 96%

Row | Compound | GTP binding activity (% of control)
25 | Cc1c(C(=O)NCc2cccnc2)oc2ccc(S(=O)(=O)N3CCC4(CC3)OCCO4)cc12 | inconclusive: 105%
26 | CCCCN(CCCC)C(=O)CCS(=O)(=O)c1ccc2c(c1)n(C)c(=O)c(=O)n2C | inconclusive: 112%
27 | S=C(N/N=C/c1ccccc1Cl)Nc1ccccc1 | inactive: 100%
28 | C/C(=N\O)c1ccc2c3ccccc3n(C)c2c1 | inconclusive: 103%
29 | Cc1cc(/C=C(\C#N)C(=O)NCc2ccco2)c(C)n1-c1ccc(C(=O)O)cc1 | inactive: 100%
30 | COC(=O)CN(C(=O)CSc1nnc(-c2cccc(OC)c2)o1)c1ccc(OC)cc1 | inconclusive: 109%
31 | O=C(COC(=O)CCc1c[nH]c2ccccc12)Nc1cc([N+](=O)[O-])ccc1Cl | inconclusive: 91%
32 | Cc1ccc2[nH]c3nc(SCCN4CCOCC4)nnc3c2c1 | inconclusive: 91%
33 | O=C(C(c1ccccc1)c1ccccc1)N1CCN(Cc2ccncc2)CC1 | inconclusive: 107%
34 | Nc1nc(SCC(=O)NC2CCCCCC2)[nH]c(=O)c1-c1ccccc1 | inactive: 105%
35 | Cc1ccc(S(=O)(=O)N(C)C)cc1NC(=O)COC(=O)C1COc2ccccc2O1 (stereo not drawn) | inconclusive: 88%
36 | CC(/C=N/NC(=O)c1sc(N)nc1C)=C\c1ccccc1 | inactive: 97%
37 | O=C(CSc1cccc[n+]1[O-])c1cc(Cl)ccc1Cl | inactive: 97%
38 | CCS(=O)(=O)N1CCCC(C(=O)NCC2CCCO2)C1 (stereo not drawn) | inconclusive: 106%
39 | Cc1cccc(-n2c(SCc3cc(=O)n4c(C)cccc4n3)nc3[nH]ncc3c2=O)c1 | inconclusive: 90%
40 | COCCN(CCOC)C(=S)Nc1ccccc1Cl | inactive: 95%
41 | COc1ccc(NC(=S)NCCc2c[nH]c3ccc(OC)cc23)c(OC)c1 | inconclusive: 104%
42 | O=C(N/N=C/c1sc(=O)n(-c2ccccc2)c1Cl)c1ccncc1 | inconclusive: 102%
43 | CCOC(=O)CSC1=N/C(=C/c2ccc(-n3cncn3)cc2)C(=O)N1C(C)=O | inactive: 96%
44 | O=C(NC(=S)NCCCN1CCOCC1)c1cccc2ccccc12 | inactive: 104%
45 | CCOc1ccc2c(c1)sc(=NC(=O)C1CC1)n2C | inconclusive: 92%
46 | O=C(c1cccnc1)N1C2C=CC(C2)C1(C(F)(F)F)C(F)(F)F (stereo not drawn) | inconclusive: 90%
47 | Cc1ccc(-c2csc3nc4c5ccccc5c(NCCCN5CCOCC5)nn4c(=O)c23)cc1 | active: 60%
48 | CCn1c(COc2ccccc2)nnc1SCC(=O)c1cccc([N+](=O)[O-])c1 | inconclusive: 100%

Row | Compound | GTP binding activity (% of control)
49 | Cc1nc2sccn2c1-c1nc(-c2cc3ccccc3o2)cs1 | active: 79%
50 | COc1ccc(N2CCN(c3ccc(Cl)nn3)CC2)cc1 | inactive: 97%
51 | COc1ccc(/C=C/c2nc3ccccc3n2C)cc1 | inconclusive: 104%
52 | COc1cc(/C=C2/NC(=O)NC2=O)cc(Br)c1OCc1ccc(C(=O)O)cc1 | inconclusive: 86%
53 | Cc1ccc(NC(=S)NCc2ccc(S(N)(=O)=O)cc2)cc1Cl | inconclusive: 99%
54 | CC(C)(C)n1ncc2c(=O)n(Cc3cccc(Cl)c3)cnc21 | inactive: 101%
55 | O=C(O)c1ccc(CNCc2ccc(F)cc2)cc1 | inactive: 83%
56 | O=C(CSc1ccc2nnc(-c3ccncc3)n2n1)Nc1nccs1 | active: 71%
57 | Cc1ccc2c(CC(=O)NC3CCCc4ccccc43)coc2c1 (stereo not drawn) | inconclusive: 104%
58 | O=C(O)COc1ccccc1/C=N/NC(=O)c1cccc(S(=O)(=O)Nc2cccc(Cl)c2)c1 | active: 75%
59 | CCOc1ccc(-c2nc[nH]c2[N+](=O)[O-])cc1 | inactive: 93%
60 | O=c1[nH]c(/C(=N\O)c2ccccc2)no1 | inconclusive: 83%
61 | c1ccc(Nc2nc(-c3ccccn3)cs2)cc1 | inactive: 105%
62 | Cn1c(O)c(N=NC(=O)c2ccccc2O)c2ccccc21 | inactive: 96%
63 | O=C(c1ccc(-c2ccccc2)cc1)N1CCN(Cc2ccccn2)CC1 | inconclusive: 105%
64 | CCOCCCNC(=O)/C(C#N)=C/c1ccc([N+](=O)[O-])o1 | inactive: 101%
65 | O=C(c1cc([N+](=O)[O-])ccc1Cl)N1CCN(c2ccccc2)CC1 | inconclusive: 103%
66 | Cc1ccc(-c2csc(/C(C#N)=C/Nc3ccccc3SC(F)(F)F)n2)c(C)c1 | inactive: 105%
67 | CCc1ccc(CNC(=O)CCc2nnc(CCc3ccc(OC)cc3)o2)nc1 | inconclusive: 98%
68 | COc1ccc(C2=Nn3c(nnc3-c3ccco3)SC2)cc1OC | inconclusive: 73%
69 | CCCCNS(=O)(=O)c1ccc2c(c1)oc(=O)n2CC(=O)OCC | inconclusive: 107%
70 | COCCNC(=S)N1CCC(NC(=O)Nc2ccc(C)cc2)CC1 | inactive: 100%
71 | CCn1c(SCC(=O)c2ccc(Cl)cc2)nnc1-c1ccoc1C | inconclusive: 97%
72 | CCc1cccc(CC)c1-n1c(SCC(=O)c2c(N)n(C)c(=O)n(C)c2=O)nnc1-c1cccnc1 | inconclusive: 103%

Row | Compound | GTP binding activity (% of control)
73 | Cc1ccc(Nc2nnc(SCC(=O)NCCN3C(=O)CSC3=O)s2)cc1 | inactive: 100%
74 | COCCNC(=O)CSc1nc2ccccc2c(=O)n1CC1CCCO1 (stereo not drawn) | inconclusive: 103%
75 | Cc1cc(OCc2ccc(C(=O)n3cccn3)o2)ccc1Cl | inconclusive: 97%
76 | COCc1c(C(=O)OCc2c(C)noc2C)oc2ccccc12 | inconclusive: 99%
77 | O=C(Cc1ccc(Cl)cc1)c1c[nH]c(C(=O)NCCCn2ccnc2)c1 | inconclusive: 93%
78 | O=C(CCC(=O)N1CCN(S(=O)(=O)c2ccccc2)CC1)NC1CCCc2ccccc21 (stereo not drawn) | inconclusive: 107%
79 | CC(NCc1cc(Br)ccc1OCC(=O)NCc1ccccc1)c1ccccc1 (stereo not drawn) | inactive: 103%
80 | COc1ccc(/C=N/NC(=O)Nc2cccc3nsnc23)cc1OC | inconclusive: 73%
81 | CNC(=O)C(C)NS(=O)(=O)c1ccc(F)cc1 (stereo not drawn) | active: 34%
82 | Cc1nc(S(=O)(=O)N(C)Cc2ccccc2)c(C#N)c(C)c1Cl | inconclusive: 105%
83 | CCCNC(=O)CCn1c(-c2ccc(C)cc2)cc(C(=O)OCC)c1C | inconclusive: 103%
84 | CCOc1ccc2ncc(C(=O)c3ccc(OC)cc3)c(N3CCN(CC)CC3)c2c1 | inconclusive: 723%
85 | COc1cc(/C=N/NC(=O)CSc2cc(C)c(Br)cc2C)ccc1O | inconclusive: 95%
86 | O=C(N/N=C/c1c(O)n(Cc2ccccc2)c(=O)c2ccccc12)c1cccnc1 | active: 55%
87 | Brc1ccccc1-n1nnc(-c2ccnc3ccccc23)n1 | inconclusive: 109%
88 | CCSc1nc(-c2cccs2)nc2ccccc12 | inactive: 95%
89 | CCN(CC)CCNC(=O)CCn1c(=S)[nH]c2cc3c(cc2c1=O)OCO3 | inconclusive: 102%
90 | COc1ccc(/C=N/NC(=O)c2cccnc2)cc1Cn1nc([N+](=O)[O-])c(Br)c1C | inconclusive: 84%
91 | Cc1ccn2c(=O)nc(SCc3cccc(C(F)(F)F)c3)nc2c1 | inactive: 92%
92 | CCC(CC)C1C(C#N)=C(N)Oc2n[nH]c(C)c21 (stereo not drawn) | inconclusive: 107%
93 | O=c1cc(N2CCc3ccccc3C2)[nH]c(=O)n1-c1ccc(Cl)cc1 | active: 121% [activator]
